Some of the results follow.
system: PF3D7_0420300 AP2 domain 1 (GST-tagged); assay: gcPBM binding intensity (ln(normalized median fluorescence intensity)); higher = stronger DNA binding
Procedure, shortened: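 Probes on an Agilent 4 × 180k array were primer-extended, double-stranded and 36 bp long, taken from intergenic genomic regions, with negative controls added. GST-tagged P. falciparum DNA-binding domains from E. coli, about 25 μg on average, were applied to the array for 1 h in 1× PBS containing 1% milk, 0.2 mg/ml BSA, 0.5% salmon testes DNA and 0.03% Triton X-100. Binding intensity, obtained after Alexa488 anti-GST antibody detection and a 488 nm scan, is the highest Masliner-normalised natural-log median intensity across replicate spots of either probe orientation.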

Sequence	gcPBM binding intensity (ln)
AATTAGATACTAACAAGTACATATATATATATATAT [XGTACX_site2252]	9.59
TTTCCCTAATGAAAGTGTACCTGTGAGAAAAAAAAG [XGTACX_site194]	8.96
ATTTAGATTAACACTTGTACATAATACATACAAATA [XGTACX_site4147]	9.15
ATTTTTTTTTGTGTATATAAATAAATAAATATATAT [GTGCAC_negctrl_site603]	9.07
TTGTAATTATTAAACACACACAAAATATCTAGAATA [CACACA_site7231]	9.73
AAAAGAAAAGAGAGGAGTACAAAATATAATTATCTA [XGTACX_site5172]	9.38
AAAAAAAAAAAAAGAACACACACAGTGCACATTCGG [CACACA_site8163]	9.71
TTATTTATTTATATAGTGCAATAAACACATAAATAG	8.87
TGTATATATTAATGTACACACATGCGTATGTTCGTT [CACACA_site3583]	9.59
CATATTGGTATGCTCATGCACTTTTATTTTGTTATT [GTGCAC_site9553]	9.63
ACTTTAAACAAAAAAAGTACTCTTTAATGAATATAT [XGTACX_site7176]	9.01
TATATATATATATATATATATATATATATATGTTGT [TGCATGCA_negctrl_site24]	9.07
CAATTTCTCTTAATTTGTACATATATGTTATACAAA [XGTACX_site3231]	9.07
CAATATTTTATTTAAGCATGCTCTAGGGTGTAAAAG [TGCATGCA_site1001]	8.99
AAATATATATAAAAGTGTACATTTGTTATAATCAGT [XGTACX_site4822]	9.51
TAGATATATAATTTTTGTACGTAGTCGAATCTCAGA [XGTACX_site765]	9.06
CTCAACAAAATATGAGTGCATTGTTATTACATATAT	9.32
AACATTAAAAGGGATACACACATATAAATAAATAAT [CACACA_site489]	9.91
TTATATATTTCTACTCATATTACAATGTGAGAAATA [CACACA_negctrl_site873]	8.91

Sequence	gcPBM binding intensity (ln)
CCAACTAAAAAGGAATGTACATAGTTATGGTTGGAA [XGTACX_site8762]	9.35
TTGTTTCTCTTTAAAAGTACAAAAATGGTTACATAT [XGTACX_site3109]	8.95
TAGATTTTTTAATGTTGTACAAATATACGATATATA [XGTACX_site3258]	8.99
ACTATTCATGCATATACACACACATATATATATATT [CACACA_site9309]	10
TATAGTATTCTAAATGCATGTAAATTATGTATATAT [TGCATGCA_site931]	9.38
TATATTATACTAAGAAGTACAATATTTTTATTGTAA [XGTACX_site2810]	8.94
AAATTCCACGAACACACACACATATAAATAAATAAA [CACACA_site6697]	9.97
TAGTAAAAACCAAAATGTACATGTGCCATTTTTTTA [XGTACX_site2630]	9.09
GTTTATCACAGCCACGCACACATAATATCTGTATAT [CACACA_site5929]	9.73
CTTATATTGTACAGTACACACCTTTATAATGTTATT [CACACA_site4280]	9.65
GATTATTAATAGTAACGTACATATGTTATAAAATAT [XGTACX_site5277]	9.21
ATCAAAAAAAAAAAAAGTACACAAAATTTTTTATTA [XGTACX_site7986]	9
TATATGTGTGTTATATGTACTTATATATATATATAT [XGTACX_site5570]	9.48
ATAATGAACAAAGTAGTGCACTTTCCTTATCTTTTC	9.22
AAGGTTTAAAATTACTGTACAAATATAAATAAATAT [XGTACX_site3756]	9.21
ACTAATATGTATATATATATATATATATATATATAT [CACACA_negctrl_site141]	9
TACATATTTAAATACTGTACTCAAAAGAATTGTGCA [XGTACX_site2250]	9.04
AAAATATAAAATAATGCACACATAAACAAAAAATCA [CACACA_site8382]	9.75
TAAAGTTAAAAATTATGTACATATATATTGTATATT [XGTACX_site5528]	9.12

Sequence	gcPBM binding intensity (ln)
GATAAAATAGGACCATATTCTTTAAAACGATAAAAT [XGTACX_negctrl_site405]	9.25
ATATATATATATTTATGTACATATACATAATGTATA [XGTACX_site6387]	9.11
TAAGAAGTATTTTCCTGTACATATTTTATATGTATG [XGTACX_site4658]	9.07
TTATTTTATATATCACGTACATAGTTGTCTTCTTTT [XGTACX_site2906]	9.38
ATGAATCCTTAATATGAACACACAAATATATTACAC [CACACA_site7943]	9.55
TTATTTCAAAGTAAATCAGTAAATATTTGTTTTCTT [CACACA_negctrl_site1572]	9.02
TTTTTTATTTATCCTATATATTACTAAATGAAGAAC [GTGCAC_negctrl_site333]	8.87
TCCTTATTTATATAATGTACTTTTTTTTTTCATTTT [XGTACX_site4275]	9.22
TACAAGTATAAATAAGCACACATGTGGATATGTACA [CACACA_site4229]	9.58
TATATCTTATTTAACACACACAAAGAAAATAGAAAA [CACACA_site3732]	9.77
TCTTTAAATTTCTCAACACACAGTTATAAAAAATAA [CACACA_site2856]	8.98
AACAATAAAAATAATTGTACAAGTTTAAAAAAAATT [XGTACX_site1987]	9.23
ATATTTTTTTTTGTTAGTACTCATATTTGTAGTTTT [XGTACX_site7280]	9.64
CATTTAAGACAAATTACACACGTATGCCAAATATAT [CACACA_site431]	9.58
TTTTTAATTTCAATGGTGCAGTAATAATATAATAGT	9.13
AATATATATAATTATAGTACAGAAAATTAAAAAAGA [XGTACX_site2943]	9.43
TGTTCTATTCTATTATTATTTACAAATTATAAATAA [GTGCAC_negctrl_site232]	9.2
ATATATTTATAATAGGTGCATATGTTTTATTTTTCC [GTGCAC_site9849]	9.49
TATATATATTAGTGTGCACACTTTTTATTTTTATCC [CACACA_site8506]	9.75
